Measured values published in the RNAGym collection of RNA variant scans (doi:10.7554/elife.90254).
The source gives no read counts; variants with many changes may rest on few reads.

B1: LINE1-full (parent)
chain: UACGUAGGUGGUUUUCCCCUGAUAGUGCUAAGGGGGCCUGGAAGUUUGGACUGGGCAGAGCUCAACACAGCGUGGCAAAGUGGCUGUGGCUAGACUGCCUCUCUGGAUUCCUCGUCACUCAGCAGGGCAUCUCUGAGAGAAAUGCC

Variants of: B1
Assay: self-cleavage, relative activity (ratio to wild type); higher = more cleavage; in vitro, sequencing; the parent is a self-cleaving ribozyme
U15A A94U A141G U143C showed a self-cleavage of 0.27.
Variant U15A A107G U108C has a self-cleavage of 0.92.
In the case of U15A C37G A42G U62C, the self-cleavage is reported as 0.
With U15A C37U U87C A94G U134C the self-cleavage was 0.09.
With U15A C38U U102C the self-cleavage was 0.32.
U15A C63U A107G showed a self-cleavage of 0.27.
U15A C66U C98G A141G gave a self-cleavage of 0.05.
Variant U15A C66U U115C has a self-cleavage of 0.02.
With U15A C71A U85A the self-cleavage was 0.03.
With U15A C76G A77G the self-cleavage was 2.07.
In the case of U15A C95U A138G, the self-cleavage is reported as 0.27.
U15A C116U A129G gave a self-cleavage of 1.15.
With U15A C133U A138G A140G the self-cleavage was 1.34.
U15A G32A G88C showed a self-cleavage of 0.05.
With U15A G34A A78G the self-cleavage was 0.84.
Work on U15A G34A A129G yielded a self-cleavage of 0.31.
For U15A G35A U73A U112C, the self-cleavage was 0.96.
U15A G44A A59G A142G gave a self-cleavage of 0.07.
With U15A G48U A64U U134C A136G U143A the self-cleavage was 0.07.
U15A G82A C99A A140G showed a self-cleavage of 0.51.
For U15A G89A U102A, the self-cleavage was 0.05.
U15A U20C A22G U39C gave a self-cleavage of 0.79.
In the case of U15A U20C A129G U143A, the self-cleavage is reported as 1.35.
Variant U15A U20C A140U has a self-cleavage of 0.75.
U15A U20C U100C A124U showed a self-cleavage of 0.
Variant U15A U23A U85A has a self-cleavage of 0.02.
U15A U23C A42G A67G U143A showed a self-cleavage of 0.38.
For U15A U23C U73G U108C U130A, the self-cleavage was 0.
U15A U26C U115C gave a self-cleavage of 1.93.
Variant U15A U26G C61U A92G U143G has a self-cleavage of 0.25.
U15A U29C U91A showed a self-cleavage of 1.21.
U15A U29G U47C U52A C113U gave a self-cleavage of 0.88.
U15A U29G U73G gave a self-cleavage of 1.31.
Variant U15A U39C U108A has a self-cleavage of 0.69.
Work on U15A U45C A59G C61U U130A U132A A140G yielded a self-cleavage of 0.08.
With U15A U45C G75A the self-cleavage was 0.49.
U15A U45C U62A A64G A77U gave a self-cleavage of 0.11.
U15A U47A A59G C61U U130C showed a self-cleavage of 0.04.
U15A U47A G126A A142G gave a self-cleavage of 1.07.
For U15A U47C U134C, the self-cleavage was 0.
U15A U47G C63A gave a self-cleavage of 0.11.
For U15A U52A U134C, the self-cleavage was 0.73.
U15A U62C A142G showed a self-cleavage of 0.21.
Variant U15A U62C U81C C84U A129G has a self-cleavage of 0.
In the case of U15A U62C U104C, the self-cleavage is reported as 0.07.
Variant U15A U73C A129U A142G has a self-cleavage of 1.03.
With U15A U73C U100C the self-cleavage was 0.61.
For U15A U81C U85C, the self-cleavage was 0.77.
U15A U102C U134G showed a self-cleavage of 0.61.
In the case of U15A U130A A141G, the self-cleavage is reported as 1.29.
Variant U15C A22G A67C U87C has a self-cleavage of 0.
For U15C A22G G34A, the self-cleavage was 0.35.
For U15C A22G U47A A107G, the self-cleavage was 0.72.
U15C A22G U47C gave a self-cleavage of 0.92.
In the case of U15C A24C U46C, the self-cleavage is reported as 1.31.
With U15C A24G A78G U91C U119C the self-cleavage was 0.
For U15C A24G A140U, the self-cleavage was 1.04.
Work on U15C A24G U85A yielded a self-cleavage of 0.32.
For U15C A24U U39C U73G, the self-cleavage was 1.84.
With U15C A30C A57G the self-cleavage was 0.72.
Variant U15C A30U A67G A79G has a self-cleavage of 0.61.
U15C A30U U62C showed a self-cleavage of 0.11.
Variant U15C A31G A57G G74U U130C has a self-cleavage of 1.28.
With U15C A31G C76U A107U U115C A141G the self-cleavage was 2.84.
In the case of U15C A31G U39C, the self-cleavage is reported as 1.2.
Variant U15C A31G U85A has a self-cleavage of 0.11.
Work on U15C A31U A64G U115C yielded a self-cleavage of 0.
For U15C A31U U39C A50U, the self-cleavage was 0.44.
U15C A31U U85A A107G U119C showed a self-cleavage of 0.11.
Variant U15C A31U U143C has a self-cleavage of 0.54.
With U15C A42G A69G C84U U100C the self-cleavage was 0.1.
For U15C A42G C61U A78G, the self-cleavage was 0.05.
U15C A42G C101U U130A U134C showed a self-cleavage of 1.85.
With U15C A42G U109A the self-cleavage was 1.61.
In the case of U15C A42U U62C A121U U132A, the self-cleavage is reported as 0.1.
Variant U15C A43G A79U U104C U130C has a self-cleavage of 1.84.
With U15C A43G A136U the self-cleavage was 1.02.
Work on U15C A43U A94U G122U A141G yielded a self-cleavage of 0.13.
Variant U15C A50G A129G has a self-cleavage of 0.61.
With U15C A50G A138G the self-cleavage was 1.38.
Work on U15C A50G A141G yielded a self-cleavage of 1.4.
U15C A57G A64U U108C gave a self-cleavage of 0.68.
With U15C A57G A67G the self-cleavage was 1.53.
For U15C A57G G97U U108A, the self-cleavage was 0.04.
Work on U15C A57G U73C yielded a self-cleavage of 0.
U15C A57U U130C showed a self-cleavage of 0.34.
In the case of U15C A59G U104A, the self-cleavage is reported as 0.11.
U15C A59U A141G gave a self-cleavage of 1.03.
Work on U15C A64C A65G A94G C120U yielded a self-cleavage of 0.
For U15C A64C U73A, the self-cleavage was 0.53.
With U15C A64G U73A A79G A140C the self-cleavage was 0.64.
In the case of U15C A64G U112A, the self-cleavage is reported as 0.45.
For U15C A64G U130C, the self-cleavage was 0.65.
U15C A65G A69G U134C gave a self-cleavage of 0.
For U15C A65G A140G, the self-cleavage was 0.
Work on U15C A65U A94G A124U yielded a self-cleavage of 0.05.
U15C A67C G127U gave a self-cleavage of 0.1.
Work on U15C A67G U73C yielded a self-cleavage of 1.35.
Variant U15C A67G U73C U104A has a self-cleavage of 0.38.
Variant U15C A67G U85A U109C U130C has a self-cleavage of 0.71.
Variant U15C A67G U87C has a self-cleavage of 1.31.
U15C A67U A92G showed a self-cleavage of 0.06.
U15C A67U C128U gave a self-cleavage of 0.23.
For U15C A69G G70A A129U, the self-cleavage was 0.06.
In the case of U15C A69G G70U U115C, the self-cleavage is reported as 0.12.
With U15C A69G G106A A124G the self-cleavage was 0.07.
U15C A77G U112C gave a self-cleavage of 2.68.
Variant U15C A77U A79G has a self-cleavage of 1.17.
For U15C A78G U96C, the self-cleavage was 0.
For U15C A79G A140U, the self-cleavage was 2.7.
For U15C A79U G82A A94G C95A U102C C131U, the self-cleavage was 0.12.
Variant U15C A94G U96A A121U has a self-cleavage of 0.
For U15C A107G A129U, the self-cleavage was 1.15.
Variant U15C A107G U108C A138U has a self-cleavage of 0.85.
With U15C C17U U39A A43U U115A the self-cleavage was 0.39.
Work on U15C C18U A69G yielded a self-cleavage of 0.96.
In the case of U15C C19U A117U, the self-cleavage is reported as 1.81.
U15C C19U U20C U102C C128G showed a self-cleavage of 1.42.
Variant U15C C19U U23C U73C A78U A117U A129G has a self-cleavage of 2.89.
For U15C C19U U108C, the self-cleavage was 1.48.
Variant U15C C28A U52G has a self-cleavage of 0.75.
U15C C28U A138C showed a self-cleavage of 0.79.
U15C C38U A94G U115C A124G U132A A142G gave a self-cleavage of 0.8.
U15C C38U U47A showed a self-cleavage of 1.12.
Variant U15C C51A G72U U96C A138U has a self-cleavage of 0.16.
Work on U15C C51U A69G U119A yielded a self-cleavage of 0.5.
U15C C51U U96A U112C A136G gave a self-cleavage of 0.08.
With U15C C61A A129G the self-cleavage was 0.08.
U15C C61A U85C G93A U96A A141G gave a self-cleavage of 0.04.
Variant U15C C61U U112C has a self-cleavage of 0.06.
For U15C C63U U132C, the self-cleavage was 0.4.
For U15C C71G U96C, the self-cleavage was 0.
Work on U15C C71U U108G U134C yielded a self-cleavage of 0.84.
With U15C C76U U112C A141U the self-cleavage was 2.12.
Work on U15C C90A U109A yielded a self-cleavage of 0.03.
Work on U15C C101U U108C yielded a self-cleavage of 1.84.
U15C C103A U143A showed a self-cleavage of 0.
In the case of U15C C113U A141G A142G, the self-cleavage is reported as 2.02.
U15C C113U G122A gave a self-cleavage of 1.84.
Work on U15C C131U A140G yielded a self-cleavage of 1.52.
With U15C G21A U130A the self-cleavage was 1.05.
U15C G27A G126A U130A A136G gave a self-cleavage of 1.32.
Work on U15C G34A A57G U96C A140G yielded a self-cleavage of 0.23.
Work on U15C G34A A92G G126A A136C yielded a self-cleavage of 0.09.
Work on U15C G34U A43G C145G yielded a self-cleavage of 2.35.
For U15C G35A A65G U81C U134A, the self-cleavage was 0.06.
For U15C G35A G55A A59G U112C A124G, the self-cleavage was 0.07.
Variant U15C G35U A69G has a self-cleavage of 0.23.
For U15C G40A A124G, the self-cleavage was 0.66.
U15C G41U A79G G88A gave a self-cleavage of 0.02.
With U15C G44A A77C the self-cleavage was 0.3.
Work on U15C G53U A121G yielded a self-cleavage of 1.53.
U15C G72A U130C showed a self-cleavage of 0.98.
U15C G114A A124U gave a self-cleavage of 1.64.
Work on U15C G126U A138G yielded a self-cleavage of 1.34.
Variant U15C U20A A42G A107U A129C has a self-cleavage of 0.
Work on U15C U20A A107G yielded a self-cleavage of 0.95.
Variant U15C U20A U100A has a self-cleavage of 1.15.
With U15C U20C A50G A65U the self-cleavage was 1.23.
U15C U20C A77U gave a self-cleavage of 1.86.
Work on U15C U20C C61A U87C U96A U130C yielded a self-cleavage of 0.09.
In the case of U15C U20C U29C U45A, the self-cleavage is reported as 0.
With U15C U20C U39A U96C U115C the self-cleavage was 0.17.
U15C U20C U45A U46A U102A gave a self-cleavage of 1.64.
U15C U20C U85C G125U showed a self-cleavage of 0.46.
For U15C U23A A31G U73G U104C, the self-cleavage was 0.35.
In the case of U15C U23A C28U A42G, the self-cleavage is reported as 0.6.
